Some of the results follow.
Test system: PfSIP2 AP2 domain 1 (GST-tagged)
Assay: gcPBM binding intensity (ln(normalized median fluorescence intensity)); higher = stronger DNA binding
How it was run: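 After 1 h on an Agilent 4 × 180k array of primer-extended double-stranded 36-bp intergenic genomic probes and negative controls, bound GST-tagged P. falciparum DNA-binding domains were detected with Alexa488 anti-GST antibody and scanned at 488 nm. The domains had been expressed in E. coli, and binding took place in 1× PBS with 1% milk, 0.2 mg/ml BSA, 0.5% salmon testes DNA and 0.03% Triton X-100. Binding intensity is the highest Masliner-normalised natural-log median intensity across replicate spots of either probe orientation.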

Sequence | gcPBM binding intensity (ln)
TATTTTTATTGGTACTGTACCTATTTAGAAATACAT [XGTACX_site6663] | 6.96
ATGATTTCATTTGAGAGTACGTAAAAATAATACGTA [XGTACX_site4958] | 6.93
TATTTATAAAAAAATACATGCATTTTTTTTTTTTTT [TGCATGCA_site65] | 7.13
TGTTAATTCTTAAGAATTTCCATAATTTCTTCTTTT [CACACA_negctrl_site1065] | 6.75
TTTGCCATATGACACACACACATGTAAACCCCCTTT [CACACA_site6873] | 7.48
TAATACAAAAACAATGTTCTTTCAAACATAAACATA [CACACA_negctrl_site1628] | 6.78
TTATATTCTAGAGACACATGCGATTTTTTATTTTAT [TGCATGCA_site649] | 6.83
TGGAATAATCCGCGTACACACATATATATATTAAGA [CACACA_site4253] | 7.51
AATAAAAATAGGAATACGCACACGATGATTAATTTA [CACACA_site1836] | 6.78
AATTAACCCTAATTTTGTACATATTCCTTTTCTCAT [XGTACX_site46] | 6.82
GTTACTATGATTAATGCATGCAAATACCAAAAAAAA [TGCATGCA_site590] | 7.54
TATACCACACGATATACACACTTGTAGACATCTTTT [CACACA_site6232] | 6.94
TAATACGAATGAGGCACACACCTAGTATACATGCTT [CACACA_site6438] | 6.65
TCCCTTCATCTTTTATGTACTAAAAAATTGAATAAT [XGTACX_site2172] | 7.37
AATTAAAATTTTTGAAGTACACTCAAAATAAGTTAT [XGTACX_site4490] | 6.97
AAAATAAAAAAAAACACACACATACAAGCATATATA [CACACA_site1585] | 6.89
AAAAAAAAATTTAAGGGTACATACAAATATATATAT [XGTACX_site5078] | 8.33
CATATATAAAAAAACACACACATATTTATATTTATA [CACACA_site6682] | 6.93
CATATTTCTTACATTTGTACTTAATAAAATTAATCA [XGTACX_site7224] | 7.21

Sequence | gcPBM binding intensity (ln)
AAAAAAATTTATAAATATTTTATTAATATATTTACC [GTGCAC_negctrl_site690] | 7.14
ACACAAAACAAAAAGGTGCTGTATAAATGGGTGTAT [GTGCAC_site9905] | 7.91
TTTTTATACAACTTATAATACATCTGAAAATATAAA [XGTACX_negctrl_site36] | 6.84
TTGTCTGACTAATTTTTTTCTGTTTGTACGTTCTTA [GTGCAC_negctrl_site602] | 6.81
TATCACATATTATGATGTACAAGGTTTCTGACTAAT [XGTACX_site2763] | 6.96
ACAAAATAAATATGAACACACACATTTATGCCTTTA [CACACA_site8346] | 6.82
ATAATTATACATATTACACACTCTCTTGATCTTTTT [CACACA_site3853] | 7.13
AATTAAATATTATAAACACACATATAGATTATTTTT [CACACA_site6538] | 6.88
ATTTTAAATATGGAATGTACTTAAAAAAAATTTCAT [XGTACX_site5058] | 6.92
ATTTCTTATTAAATTACACACAAAGTAAATAAATCT [CACACA_site3924] | 6.84
TTTTCCTTTTTTTTTACATGCAGATATAGAAAGGTA [TGCATGCA_site106] | 7.08
TTGTTTTGGATTATCACACATATAATATATACTCAT [CACACA_site4780] | 7.15
AAATACATAACTTAAAATTTGTTCATATCTATACAT [TGCATGCA_negctrl_site249] | 6.94
TATAATAATATGGATTGTACATATATATTTAATTAA [XGTACX_site4327] | 6.98
GTAATTTTTTTCTATACACACATATCTATAATATAT [CACACA_site7284] | 7.08
TACTTATAATTTCAATGTACATATATATAATATCAT [XGTACX_site2424] | 7.15
AACACCCATGGACACACACACATATATATATATATA [CACACA_site5809] | 9.43
TTTTTATAAGCATAAAGTACAAATATTTTTTAGTTG [XGTACX_site4140] | 7.19
TAAATCCGTTTGATGGGTACATACATACATACATAT [XGTACX_site8889] | 7.01

Sequence | gcPBM binding intensity (ln)
ACAATAAAATATGGCACACATATATATATATATTTA [CACACA_site3] | 7.21
ATTTATTTTAGTAAAGCACACGTGTAAAATATATCT [CACACA_site4820] | 6.99
TCTTTTTTGAACTAGCGTACATGAAAATATTTATAG [XGTACX_site7359] | 7.24
TTATTACATATAAAGGAAAATAGCATCTAGATTAAA [XGTACX_negctrl_site435] | 6.71
TTTTTATTTATATATAAGGAAAATGCGGTATATATT [CACACA_negctrl_site1770] | 7.38
AAAAAAAAAAAAAAAAAATACATATACATTTGTGCA [CACACA_negctrl_site1431] | 7.9
TATATGTATTTATATACACACATATTCTTTTTACAC [CACACA_site8320] | 7.12
TCCTTTTCATCTTGTAGTACGGAAATGTAGCTCCAA [XGTACX_site8563] | 6.98
AATATTTTGAACAACAGTACTCTTTCTTTCTTTCTT [XGTACX_site7212] | 6.55
TATATCTACTTAAAAAGTACGTAAATTATAAGCTAT [XGTACX_site6420] | 6.9
TGTGTAAATATGTATACACACATATCTGATCAATAT [CACACA_site7507] | 6.82
TATGTATAACTCAATGCATGCGAAGGACTATTATTT [TGCATGCA_site222] | 6.85
AATATTGTTCACAAGGTGCTTTTTATTCATACTAAT | 7.62
ACCTCACAAATGAATACACACAAACATATAGATTTA [CACACA_site6862] | 7.19
ATATATAAAATTATATGTACATATATCTATTTATAA [XGTACX_site3713] | 6.93
GATTAAAACTTTAACTGTACATAATAATTATCAATC [XGTACX_site5938] | 7.13
TTTAAAATTTCTTAATGTACGTAATAAAAAAAAAAA [XGTACX_site4037] | 7.08
AAAATTTAAAAATGGACACACACAAAAAATAATACT [CACACA_site7972] | 7.32
